Measured values reported in the domain aggregation screens of Martell et al. (2025).

experiment: soluble fraction after stress (log2 fold change); higher = more stays soluble; pooled small domains, quantitative proteomics; settings: stress: pH 4
Summary of the method: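 After pH 4 stress, pooled custom libraries of small protein domains were quantified with high-throughput quantitative proteomics. Aggregation propensity is taken from the fold change in each domain's soluble amount following the acid stress. The scale is log2, where higher values mean more stayed soluble.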

“HMEETALAIGREVGYPVIIKAAGGGGGRGMRVVRNEAELAAAIALTKSEAGQFFKNDMVYMEKYL” and “HMEGHVLRSPMVGTFYASSAPDKPAFVSVGQQVKEGETLAIIEAMKMFNPIEADKSGTIVAILG” are within 0.2 log units of each other in “soluble fraction (log2)” value: -0.167 for the first, -0.307 for the second.

In the case of “HMRRLQTIVYEKGLASTIKQARQMITHGHIFMNGHRVTVPGYLVTRAEESSIEFNPASPFTDEMHPM”, the “soluble fraction (log2)” value was 0.22.
